Measurements taken from PubChem BioAssay AID1240 (Sanford-Burnham Center for Chemical Genomics, 2008).
Among all 50,000 compounds or so, about 800 (1.6%) showed an effect of 50% or more. This is one part of the list.

Target: Bcl-2-like protein 10 (Homo sapiens) (UniProt Q9HD36)
Assay: TR3 peptide-Bcl-B binding displacers, biochemical primary FP assay, phenotype converters (AID 1240);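 further: 0% = Bcl-B with tracer peptide and DMSO and 100% = tracer peptide lacking Bcl-B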
Details: GST-Bcl-B / FITC-TR3 peptide fluorescence polarization; stronger effect = higher value; compound at 3.75 mg/L

Chain of UniProt Q9HD36 (Q9HD36 whole entry, looked up): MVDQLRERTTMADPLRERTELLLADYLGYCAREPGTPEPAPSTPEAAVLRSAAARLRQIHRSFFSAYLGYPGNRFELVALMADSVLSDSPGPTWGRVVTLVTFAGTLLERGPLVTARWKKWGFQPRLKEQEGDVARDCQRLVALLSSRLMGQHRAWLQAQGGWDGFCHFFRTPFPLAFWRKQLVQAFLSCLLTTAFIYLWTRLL

Structure (SMILES)	displacement
Cc1c(C(=O)N(Cc2ccccc2)c2ccccn2)cccc1[N+](=O)[O-]	-11.6%
CCOc1cc(C(=O)NCCc2cccc(Cl)c2)cc(OCC)c1OCC	-2.2%
O=C(CSc1ncn[nH]1)NCCOc1ccccc1	5.2%
COc1cc(OC)cc(C(=O)Nc2ccc(O)c(-c3nc4ccccc4o3)c2)c1	-5.4%
CCN1C(=O)CC(N2CCC(Cc3ccccc3)CC2)C1=O (stereo unspecified)	4.8%
CCc1c(C)nc2cc(-c3ccccc3)[nH]n2c1=O	-9.9%
O=C(Nc1ccc(I)cc1)c1ccc(CN2CCOCC2)cc1	4.9%
COc1ccc(N(CC(=O)Nc2cccc(Cl)c2)S(=O)(=O)c2ccc(OC)c(OC)c2)cc1	11.1%
NS(=O)(=O)c1ccc(CNC2CC(=O)N(c3ccccc3)C2=O)cc1 (stereo unspecified)	9.8%
CN1CCN(C(=O)/C=C/c2ccc(Cl)cc2)CC1	8.2%
Clc1ccc(Sc2ccc(/C=N/n3cnnc3)o2)cc1	1.8%
O=C(O)c1ccc(-c2ccc([N+](=O)[O-])cc2Cl)o1	-7.7%
O=C(Nc1ccccc1C(=O)N1CCCCCC1)c1ccc(Cl)cc1	4.5%
COc1ccc(C2=NN(C(=O)CCC(=O)O)C(c3ccc(F)cc3)C2)cc1 (stereo unspecified)	-15%
OCc1ccc(-c2cccc(Cl)c2)o1	10%
COc1ccc(-c2nn(-c3ccccc3)cc2/C=C/C(=O)c2ccccc2)cc1	5.2%

Structure (SMILES)	displacement
COc1cc(C=O)c(Br)cc1OCc1ccc(C)cc1	0.4%
COc1ccc(-c2cc(C(=O)NCCc3ccccc3)c3ccccc3n2)c(OC)c1	-5.9%
Cc1ccc(N2C(=O)CC(NCCc3ccc(Cl)cc3)C2=O)cc1 (stereo unspecified)	0.7%
Cc1cc(C)c(OCC(=O)Nc2ccc(F)cc2)c(C)c1	9.9%
CC(=O)N1N=C(c2ccccc2)CC1c1ccc([N+](=O)[O-])cc1 (stereo unspecified)	10.8%
CC(C)OC(=O)COc1ccc2c3c(c(=O)oc2c1)CCCC3	-2.6%
COc1ccc(C2Nc3ccccc3C(=O)N2Cc2ccccc2)cc1 (stereo unspecified)	17.4%
CC(C)CN1C(=O)/C(=C/c2ccc(Cl)c(Cl)c2)SC1=S	14.7%
CCC12CC3CC(C1)CC(C(=O)NNC(N)=O)(C3)C2	-4%
COc1c(Cl)cc(C(=O)Nc2cccc3ccccc23)cc1Cl	12.1%
O=C(NC(=S)Nc1ccc2oc(-c3cccc(I)c3)nc2c1)c1ccco1	2.4%
COc1ccc(-n2nc3cc(C)c(NC(=O)c4ccccc4[N+](=O)[O-])cc3n2)cc1	2.9%
O=C(NN=C1c2ccccc2-c2ccccc21)c1ccccn1	0.8%
O=C(Nc1ccc(F)cc1)N1CCN(C(=O)c2ccco2)CC1	-6.1%
COc1ccccc1C(=O)N/C(=C/c1ccc(Br)cc1)C(=O)N1CCCC1	0.8%
